Laboratory results: the supplement of paper PMC3334620
Whole data set: some 33,000 sequences, median “E-score (-0.5 to 0.5)” near -0.032, cut for the highest 2% near 0.36. The list shows a part of the results.

These sequences were tested against T1, Sko1 (UniProt Q02100) (assay: PBM E-score (8-mer binding enrichment) (E-score (-0.5 to 0.5)); higher = stronger / more preferred TF binding; most listed sequences are background and not binding sites). Settings: protein concentration: 200 nM; construct: GST-full length.
T1 sequence: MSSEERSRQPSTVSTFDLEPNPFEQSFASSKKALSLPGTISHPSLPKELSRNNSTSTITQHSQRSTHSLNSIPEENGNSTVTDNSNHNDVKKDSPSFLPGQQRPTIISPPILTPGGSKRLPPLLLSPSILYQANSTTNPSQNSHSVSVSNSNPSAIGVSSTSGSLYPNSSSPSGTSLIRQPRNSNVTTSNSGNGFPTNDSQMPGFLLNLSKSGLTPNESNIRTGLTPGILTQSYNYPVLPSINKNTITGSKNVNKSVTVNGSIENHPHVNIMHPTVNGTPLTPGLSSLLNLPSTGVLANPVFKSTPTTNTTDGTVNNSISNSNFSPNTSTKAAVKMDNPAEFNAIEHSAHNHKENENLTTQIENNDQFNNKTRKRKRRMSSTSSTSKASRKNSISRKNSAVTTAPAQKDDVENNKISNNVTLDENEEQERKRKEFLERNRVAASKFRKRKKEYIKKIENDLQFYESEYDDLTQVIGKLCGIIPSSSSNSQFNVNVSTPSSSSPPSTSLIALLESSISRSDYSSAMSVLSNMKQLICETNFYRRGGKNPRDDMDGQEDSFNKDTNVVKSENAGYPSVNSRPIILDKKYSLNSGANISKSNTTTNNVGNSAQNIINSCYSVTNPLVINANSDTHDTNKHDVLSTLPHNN
Method in brief: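 Universal all-10-mer Agilent arrays, double-stranded by primer extension on fresh or once-stripped slides, were probed with about 100-200 nM GST-tagged yeast transcription factors made by PURExpress. Fluorescent anti-GST detected bound protein, and masliner normalised the scans. E-scores from the Universal PBM Analysis Suite were given to each ungapped eight-base word pooled with its reverse complement.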

| Sequence | PBM E-score |
| --- | --- |
| CACAACTG | -0.121 |
| GGCAGCAC | -0.103 |
| CTTGGAAC | -0.0974 |
| GGTCCGGA | -0.132 |
| CGATGTTC | -0.297 |
| ATTGGTGC | -0.0524 |
| GCGGCGCA | -0.241 |
| GAACAAGA | 0.104 |
| CTATACAA | 0.055 |
| TAATAATA | 0.203 |
| CGGAGCGC | -0.239 |
| GTTCTGAA | 0.162 |
| TAGGCTCA | -0.19 |
| CAGCACCA | -0.333 |
| ACTAAGTG | 0.00171 |
| TCTTGACA | 0.0467 |
| CGGTCTAA | 0.0521 |
| CGGGCGTA | -0.179 |
| GAGGAGCA | -0.0843 |
| ATCGTTTC | 0.0108 |
| CCAGAACA | -0.0689 |
| GCAAAGCC | -0.191 |
| AAAACTAG | -0.0988 |
| CATTATCC | 0.083 |
| CACGGTAC | -0.188 |

| Sequence | PBM E-score |
| --- | --- |
| GCGTTCTA | 0.00581 |
| AAAGATGG | -0.0167 |
| GAAGTATA | 0.0355 |
| GAGCATGA | -0.0347 |
| CCTGCACC | -0.238 |
| CAATCTGA | 0.128 |
| CTTTGTCC | -0.117 |
| CAGCTCAC | -0.141 |
| ACCCCGCC | -0.123 |
| ACCAACAG | -0.199 |
| CCCGCCCA | 0.0374 |
| AACCTGGT | -0.154 |
| ACTAGCCT | -0.103 |
| ACCAGGAA | -0.212 |
| ACACCCCT | -0.00504 |
| GCGTACCA | 0.138 |
| AGTGGCGC | -0.0278 |
| GGCAGACC | -0.39 |
| AGGGTGTG | -0.0439 |
| GAGTCGGC | -0.211 |
| ACCTTCGT | 0.0282 |
| CGTCAGAA | 0.37 |
| CTCTTTCA | -0.0826 |
| CTCCATGC | -0.184 |
| AAATGCTT | -0.0922 |

| Sequence | PBM E-score |
| --- | --- |
| AATCCGCC | -0.257 |
| CCGATCGG | -0.0358 |
| ACGGATGA | 0.0509 |
| TCAGCACA | 0.0395 |
| ATCCAGAT | -0.136 |
| ACGTTAGT | 0.304 |
| CCCCTTCA | -0.174 |
| GTTCGGAA | -0.215 |
| GGCTAGGA | -0.149 |
| ACTGACTC | -0.281 |
| GATCCATA | 0.0287 |
| GAACGCCA | -0.0535 |
| ACCCGGTA | 0.0488 |
| TGCTTGAA | 0.168 |
| CTGAGGTC | -0.181 |
| CAAGTGAC | 0.185 |
| CTGGGTTA | -0.09 |
| GAGGTTCC | -0.182 |
| CCTCTTGC | -0.198 |
| AAAGCTAT | 0.055 |
| CATAGAGC | -0.213 |
| AATGCACC | 0.0446 |
| CTGGAAGC | -0.237 |
| AATTAACC | 0.0168 |
| ATACGACA | 0.363 |

| Sequence | PBM E-score |
| --- | --- |
| ATAAGAAT | 0.195 |
| AAAGGCCA | -0.118 |
| AGCAACGC | 0.0819 |
| ACATTACA | 0.28 |
| ACCAGTAA | 0.0811 |
| GGCCTCAC | -0.0829 |
| AAACTGTG | 0.0182 |
| GATGACAA | 0.256 |
| AGGCGCTC | -0.226 |
| CCTTGCAG | -0.234 |
| TAACTCAA | 0.165 |
| GCGAACAC | -0.178 |
| ATCTGCTG | 0.00474 |
| ATATGCGA | 0.206 |
| CCAGGGGC | -0.338 |
| CTCCCCCA | -0.312 |
| CTCACCTC | -0.0338 |
| CCTCGGGC | -0.181 |
| ACGGAGGA | -0.114 |
| CCACATTA | -0.0674 |
| CGCGAGTA | -0.0393 |
| AACGACGG | 0.0454 |
| CATTGTGA | -0.00774 |
| CTAGTCGA | -0.114 |
| ACCAGACA | -0.0538 |

| Sequence | PBM E-score |
| --- | --- |
| GACCATGA | 0.0708 |
| CTGAACCA | -0.044 |
| TGAATCCA | 0.0184 |
| CAACGAGC | -0.126 |
| AATCGTGC | 0.148 |
| GTCCAAAA | 0.0853 |
| AACGACAT | 0.286 |
| AAAAAGTC | -0.0118 |
| TGCAGACA | -0.0242 |
| CTTTCAGA | 0.033 |
| AAGGCTGC | -0.176 |
| CGACGGCG | 0.0652 |
| ACTTACCT | -0.0598 |
| CGCCAATA | 0.0829 |
| AATGCCTA | -0.0242 |
| GAAGTAAA | 0.0539 |
| AGTGAGAC | -0.0781 |
| TCATGGGA | -0.034 |
| CTAGGCGC | -0.0323 |
| CTATACCA | -0.0255 |
| CGAGTCAG | -0.129 |
| AACTTGAT | 0.208 |
| AGTAGTAT | 0.0161 |
| GGACGTAC | 0.275 |
| ACAGCAGC | -0.157 |

| Sequence | PBM E-score |
| --- | --- |
| CACTCCAG | -0.14 |
| CAGCTGAG | -0.108 |
| AGCCGGTG | -0.216 |
| ATCCTACC | -0.222 |
| CTCGCAGA | -0.235 |
| ACGTCCAT | 0.39 |
| AGGTGATC | 0.188 |
| GAGGGTAC | -0.209 |
| ACTAATGA | 0.243 |
| GGAATTGA | 0.0859 |
| ACGTATTA | 0.468 |
| GGGTTACA | 0.0387 |
| CACTCGTA | 0.0905 |
| TCCGCTCA | -0.187 |
| ATTGAAAC | 0.132 |
| GCACCTTA | -0.062 |
| CAGGATTC | -0.0613 |
| CGGCCACG | -0.0945 |
| CGATCACG | 0.215 |
| CGCGAAGC | 0.185 |
| ACAGTCTC | -0.202 |
| AGCGCAGG | -0.246 |
| ACTTAGAG | -0.0119 |
| CGGACTAC | 0.0634 |
| CAGCAGGC | -0.22 |

| Sequence | PBM E-score |
| --- | --- |
| GTAGTCGA | 0.0988 |
| AGTACATG | -0.00609 |
| ACCTGACA | -0.0471 |
| GGGTGTAC | -0.085 |
| ATTACTGG | -0.135 |
| ACTATGTG | -0.0357 |
| CCCAGTCA | -0.303 |
| CCGGATCC | -0.209 |
| CAGCGGTC | -0.332 |
| ACTTCCGG | -0.14 |
| ACCTGAAA | 0.0432 |
| AAGGGAGC | -0.317 |
| GATAAAGC | -0.012 |
| AAGCATGT | 0.0382 |
| CCGTCTGC | -0.109 |
| AGCCAAAT | -0.0216 |
| AAATGTCG | 0.159 |
| ACAACGAG | -0.0139 |
| ATGCGGTA | -0.0748 |
| TATTACAA | 0.221 |
| AATCTCAT | 0.117 |
| CAGTCACA | 0.0418 |
